# Paper PMC12820563, “FoxP3 forms a head-to-head dimer in vivo and stabilizes its multimerization on adjacent microsatellites”
# This is one part of the list.
# Target: T1, MBP-FoxP1dN (Mus musculus, UniProt P58462 326-579)
# T1 sequence: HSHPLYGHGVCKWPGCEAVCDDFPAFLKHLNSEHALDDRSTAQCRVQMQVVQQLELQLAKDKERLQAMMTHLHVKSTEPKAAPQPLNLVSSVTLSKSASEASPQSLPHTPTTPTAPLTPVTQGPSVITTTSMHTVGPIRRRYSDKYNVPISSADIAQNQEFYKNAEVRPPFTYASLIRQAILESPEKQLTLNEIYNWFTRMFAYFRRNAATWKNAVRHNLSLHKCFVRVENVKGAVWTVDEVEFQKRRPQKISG
# Test: PD-seq (MBP pull-down with sequencing); 20 mM Tris-HCl pH 7.5, 100 mM NaCl, 1.5 mM MgCl2, 0.4 uM protein, 0.1 uM dsDNA library, 30 min, room temperature, amylose pull-down; high values mean tight binding
# Settings: protein: recombinant; tags: His6-MBP; chain copies: 2; dsDNA, one strand shown
# In short: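 Amylose resin was used to capture complexes formed during 30 min at room temperature in Tris pH 7.5 buffer with NaCl and MgCl2 between 0.4 µM His6-MBP-tagged mouse FoxP3 or FoxP1 fragment lacking the N-terminus, expressed in E. coli, and 0.1 µM Klenow-filled double-stranded degenerate DNA library. After three washes, the DNA was released with proteinase K, barcoded by PCR and sequenced on Illumina. Binding is pooled-replicate reads-per-million enrichment, pull-down over input.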
row,Sequence,binding signal
1,GATGATTGTTCTCCCAGCTGATGAATTGCAGTTATCGAGTAAACAAATTTTCCTAATCTTTCTGTTCAAGCGCCATCTAC,1.32 RPM ratio (pull-down/input)
2,GATGATTGTTCTCCCAGCTGATGAATTAAGCATTTCGAGTAAACAAATTTTCCTAATCTTTCTGTTCAAGCGCCATCTAC,1.12 RPM ratio (pull-down/input)
3,GATGATTGTTCTCCCAGCTGATGAATTCGGTTTATCGAGTAAACAAATTTTCCTAATCTTTCTGTTCAAGCGCCATCTAC,1.14 RPM ratio (pull-down/input)
4,GATGATTGTTCTCCCAGCTGATGAATTTAAAGAGTCGAGTAAACAAATTTTCCTAATCTTTCTGTTCAAGCGCCATCTAC,0.878 RPM ratio (pull-down/input)
5,GATGATTGTTCTCCCAGCTGATGAATTAAACGCTTCGAGTAAACAAATTTTCCTAATCTTTCTGTTCAAGCGCCATCTAC,0.89 RPM ratio (pull-down/input)
6,GATGATTGTTCTCCCAGCTGATGAATTCGACTCATCGAGTAAACAAATTTTCCTAATCTTTCTGTTCAAGCGCCATCTAC,0.863 RPM ratio (pull-down/input)
7,GATGATTGTTCTCCCAGCTGATGAATTCCACGGGTCGAGTAAACAAATTTTCCTAATCTTTCTGTTCAAGCGCCATCTAC,0.755 RPM ratio (pull-down/input)
8,GATGATTGTTCTCCCAGCTGATGAATTTAGTCCGTCGAGTAAACAAATTTTCCTAATCTTTCTGTTCAAGCGCCATCTAC,0.976 RPM ratio (pull-down/input)
9,GATGATTGTTCTCCCAGCTGATGAATTTTCCTAGTCGAGTAAACAAATTTTCCTAATCTTTCTGTTCAAGCGCCATCTAC,0.888 RPM ratio (pull-down/input)
10,GATGATTGTTCTCCCAGCTGATGAATTTTTCCGTTCGAGTAAACAAATTTTCCTAATCTTTCTGTTCAAGCGCCATCTAC,0.979 RPM ratio (pull-down/input)
11,GATGATTGTTCTCCCAGCTGATGAATTGCGCCTGTCGAGTAAACAAATTTTCCTAATCTTTCTGTTCAAGCGCCATCTAC,0.994 RPM ratio (pull-down/input)
12,GATGATTGTTCTCCCAGCTGATGAATTGCCGGCCTCGAGTAAACAAATTTTCCTAATCTTTCTGTTCAAGCGCCATCTAC,0.828 RPM ratio (pull-down/input)
13,GATGATTGTTCTCCCAGCTGATGAATTGGTCACTTCGAGTAAACAAATTTTCCTAATCTTTCTGTTCAAGCGCCATCTAC,0.97 RPM ratio (pull-down/input)
14,GATGATTGTTCTCCCAGCTGATGAATTCCCACCCTCGAGTAAACAAATTTTCCTAATCTTTCTGTTCAAGCGCCATCTAC,0.807 RPM ratio (pull-down/input)
15,GATGATTGTTCTCCCAGCTGATGAATTGGCACCGTCGAGTAAACAAATTTTCCTAATCTTTCTGTTCAAGCGCCATCTAC,0.835 RPM ratio (pull-down/input)
16,GATGATTGTTCTCCCAGCTGATGAATTGGTGGGTTCGAGTAAACAAATTTTCCTAATCTTTCTGTTCAAGCGCCATCTAC,0.941 RPM ratio (pull-down/input)

row,Sequence,binding signal
1,GATGATTGTTCTCCCAGCTGATGAATTATACTAATCGAGTAAACAAATTTTCCTAATCTTTCTGTTCAAGCGCCATCTAC,1.25 RPM ratio (pull-down/input)
2,GATGATTGTTCTCCCAGCTGATGAATTAAAGACGTCGAGTAAACAAATTTTCCTAATCTTTCTGTTCAAGCGCCATCTAC,0.89 RPM ratio (pull-down/input)
3,GATGATTGTTCTCCCAGCTGATGAATTGGAGGCATCGAGTAAACAAATTTTCCTAATCTTTCTGTTCAAGCGCCATCTAC,1.1 RPM ratio (pull-down/input)
4,GATGATTGTTCTCCCAGCTGATGAATTTGGATCATCGAGTAAACAAATTTTCCTAATCTTTCTGTTCAAGCGCCATCTAC,0.985 RPM ratio (pull-down/input)
5,GATGATTGTTCTCCCAGCTGATGAATTGTGGGCATCGAGTAAACAAATTTTCCTAATCTTTCTGTTCAAGCGCCATCTAC,1.12 RPM ratio (pull-down/input)
6,GATGATTGTTCTCCCAGCTGATGAATTATTTGAATCGAGTAAACAAATTTTCCTAATCTTTCTGTTCAAGCGCCATCTAC,1.11 RPM ratio (pull-down/input)
7,GATGATTGTTCTCCCAGCTGATGAATTTACCCTATCGAGTAAACAAATTTTCCTAATCTTTCTGTTCAAGCGCCATCTAC,1.23 RPM ratio (pull-down/input)
8,GATGATTGTTCTCCCAGCTGATGAATTTATTCCATCGAGTAAACAAATTTTCCTAATCTTTCTGTTCAAGCGCCATCTAC,1.16 RPM ratio (pull-down/input)
9,GATGATTGTTCTCCCAGCTGATGAATTCTTAAGCTCGAGTAAACAAATTTTCCTAATCTTTCTGTTCAAGCGCCATCTAC,0.801 RPM ratio (pull-down/input)
10,GATGATTGTTCTCCCAGCTGATGAATTGATAATATCGAGTAAACAAATTTTCCTAATCTTTCTGTTCAAGCGCCATCTAC,1.52 RPM ratio (pull-down/input)
11,GATGATTGTTCTCCCAGCTGATGAATTCCACTTCTCGAGTAAACAAATTTTCCTAATCTTTCTGTTCAAGCGCCATCTAC,0.849 RPM ratio (pull-down/input)
12,GATGATTGTTCTCCCAGCTGATGAATTATCAAGATCGAGTAAACAAATTTTCCTAATCTTTCTGTTCAAGCGCCATCTAC,0.955 RPM ratio (pull-down/input)
13,GATGATTGTTCTCCCAGCTGATGAATTCGACGTGTCGAGTAAACAAATTTTCCTAATCTTTCTGTTCAAGCGCCATCTAC,0.839 RPM ratio (pull-down/input)
14,GATGATTGTTCTCCCAGCTGATGAATTGCTCAAATCGAGTAAACAAATTTTCCTAATCTTTCTGTTCAAGCGCCATCTAC,1.09 RPM ratio (pull-down/input)
15,GATGATTGTTCTCCCAGCTGATGAATTATACCAGTCGAGTAAACAAATTTTCCTAATCTTTCTGTTCAAGCGCCATCTAC,0.958 RPM ratio (pull-down/input)
16,GATGATTGTTCTCCCAGCTGATGAATTCGGGATGTCGAGTAAACAAATTTTCCTAATCTTTCTGTTCAAGCGCCATCTAC,0.867 RPM ratio (pull-down/input)
